# Assay results from PubChem BioAssay AID485364 (National Center for Advancing Translational Sciences (NCATS), 2010).
# Screen size: about 360,000 compounds; about 11,000 (3.1%) were called active. Inconclusive means that the source gave no clear call. Such entries were picked first, then a sample of the others. Calls follow the shape of the dose curve; as a rule, active = well fitted inhibition curve with a large enough effect; inconclusive = small, poorly fitted or top-dose-only effect; inactive = no such curve, though single readings can be large or run the other way. Potencies of inconclusive entries are left out as doubtful fits.
# Biological target: Schistosoma mansoni thioredoxin glutathione reductase (TGR) (UniProt Q962Y6)
# Experiment: qHTS Assay for the Inhibitors of Schistosoma Mansoni Peroxiredoxins; also: nearly all actives have a fitted effect of over 60% in size
# Details: purified TGR, DTNB reduction, TNB absorbance 405 nm; activity change, negative = inhibition: at 114 µM (top of the series)
# Summary of the method: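 First, TGR (20 nM dispensed) and NADPH were mixed with compound. Second, a 15 min room-temperature incubation followed. Third, further NADPH and then DTNB were added to start the reaction. Finally, TNB absorbance was monitored kinetically.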
# % is scaled to controls: 0 for no effect and ±100 for the full control effect; potency is read from the fitted curve at half-maximal effect; tags tell the direction and shape of the fitted curve.
SMILES,Potency,"activity change, negative = inhibition"
O=C(Cc1ccc(Cl)cc1)Nc1cccc(-c2nnc(-c3ccco3)o2)c1,"inconclusive [inhibitor, single point]",
CCOc1cc(N2CCOCC2)c(OCC)cc1NC(=O)CN1C(=O)NC2(CCCCC2)C1=O,,inactive: -48.6%
O=C(COc1ncnc2sccc12)N1CCN(C(=O)c2ccco2)CC1,"inconclusive [inhibitor, partial curve]",
Cc1nc(Cl)nc(N(C)c2ccccc2)c1[N+](=O)[O-],active: 4.47 µM,
CCCc1[nH][nH]c(=O)c1C(c1cccc(Cl)c1)C(C#N)C#N (stereo unspecified),"inconclusive [inhibitor, full curve, poor fit]",
Cc1occc1-c1nnc(SCc2nnc(-c3ccc(Cl)cc3)o2)n1C,"inconclusive [inhibitor, single point]",
Cn1ncc2c(NCc3ccccc3Cl)nc(NCCO)nc21,"inconclusive [inhibitor, partial curve]",
COc1ccc(NC(=S)NC(=O)Cc2ccccc2)cc1,"inconclusive [inhibitor, full curve]",
Fc1ccccc1CSc1ccc(-c2ccco2)nn1,active: 31.6 µM,
COc1ccc(F)cc1S(=O)(=O)NCC(c1ccco1)S(=O)(=O)c1ccc(F)cc1 (stereo unspecified),active: 0.316 µM,
Cc1ccc(-c2cc(C(=O)Nc3nccs3)c3ccccc3n2)o1,active: 7.08 µM,
C=CCN=c1scc(-c2ccc(F)cc2)n1/N=C/c1ccccn1,,inactive: -15.1%
CC(C)CN(C(=O)COC(=O)c1ccc(Cl)nc1)c1c(N)n(Cc2ccccc2)c(=O)[nH]c1=O,"inconclusive [inhibitor, partial curve]",
O=C(O)c1cc(NCc2cccs2)ccc1N1CCOCC1,,inactive: -9.19%
CCN1CCC2(CC1)N=C(c1ccc(F)cc1)C(=S)N2C(=O)c1ccc(C)cc1,"inconclusive [inhibitor, partial curve]",
O=C1Nc2ccccc2C1C(C[N+](=O)[O-])c1ccccn1 (stereo unspecified),"inconclusive [inhibitor, partial curve]",
Cn1c(=O)n(C)c2cc(NC(=O)Cc3ccccc3[N+](=O)[O-])ccc21,"inconclusive [inhibitor, partial curve, poor fit]",
N#C/C(=C\c1ccc(N2CCOCC2)o1)C(=O)NC1CCCCC1,active: 35.5 µM,
CCOc1ccc(NC(=O)c2cnn(-c3ccc(C)c(C)c3)c2C2CCN(C(=O)OC(C)(C)C)CC2)cc1,,inactive: 2.21%
O=C1C(=O)N(Cc2cccnc2)C(c2ccccn2)/C1=C(/O)c1ccc(Br)cc1 (stereo unspecified),"inconclusive [inhibitor, full curve, poor fit]",
CCOC(=O)c1c(/C=N/Nc2ccccc2)c2sc(C)cc2n1C,active: 22.4 µM,
O=C(c1ccco1)N1CCN(C(=O)C(Cc2ccccc2)NS(=O)(=O)c2cccs2)CC1 (stereo unspecified),active: 25.1 µM,
CN1CCC(CN)(N2CCN(c3ccccc3)CC2)CC1,"inconclusive [inhibitor, partial curve]",

SMILES,Potency,"activity change, negative = inhibition"
COc1ccc(C(C(=O)NC2CCCCC2)N(C(=O)c2cccs2)c2ccc3c(c2)OCO3)cc1 (stereo unspecified),,inactive: -10.4%
O=C(O)C1CSCN1S(=O)(=O)c1cccc2nsnc12 (stereo unspecified),active: 44.7 µM,
COc1ccc(C(=O)N2CCCC(CNC(=O)c3ccccc3Cl)C2)o1 (stereo unspecified),"inconclusive [inhibitor, partial curve]",
Cc1c(CCOC(=O)c2cc([N+](=O)[O-])cc([N+](=O)[O-])c2)sc[n+]1CC(=O)c1ccc(Br)cc1,"inconclusive [inhibitor, full curve]",
Cc1c(NC(=O)Nc2cc(Cl)ccc2Cl)c(=O)n(-c2ccccc2)n1C,"inconclusive [inhibitor, full curve, poor fit]",
Nc1nonc1C(=O)NCCNC(=O)c1ccc(Cl)c(Cl)c1,,inactive: 2.37%
CCOC(=O)c1[nH]c(C)c(/C(O)=C2\C(=O)C(=O)N(CCCN(C)C)C2c2cccnc2)c1C (stereo unspecified),"inconclusive [inhibitor, partial curve]",
COc1cc(CN2CCc3nc(N4CCN(c5ncccn5)CC4)ncc3C2)cc(OC)c1OC,"inconclusive [inhibitor, partial curve]",
CCOc1ccc(NC(=S)NC(=O)c2ccco2)cc1,active: 12.6 µM,
CCCCNC(=O)c1ccc(CS(=O)(=O)c2cccc(C(F)(F)F)c2)o1,"inconclusive [inhibitor, partial curve]",
CCOc1ccc(CN(C)CC(=O)NCc2ccc(F)cc2)cc1,,inactive: -15.2%
C#CCN1C(=O)S/C(=C\c2ccc(-c3ccc(C(=O)O)cc3C)o2)C1=O,"inconclusive [inhibitor, partial curve]",
COC(=O)C1=C(C)OC(N)=C(C#N)C1c1ccsc1 (stereo unspecified),"inconclusive [inhibitor, partial curve]",
Oc1ccc(/C=N/N=C/c2ccc(O)c(O)c2)cc1O,"inconclusive [inhibitor, full curve, poor fit]",
COc1ccc(N2C(=O)C(Cl)=C(Nc3ccc(OC)cc3OC)C2=O)cc1,active: 28.2 µM,
COc1cc(CN2CCN(CC#Cc3ccccc3)CC2CCO)cc(OC)c1 (stereo unspecified),"inconclusive [inhibitor, partial curve]",
c1cncc(-c2nc(NCc3ccco3)c3ccccc3n2)c1,active: 25.1 µM,
Cc1ccc2c(=O)cc(C(=O)Nc3ccc(S(=O)(=O)N(C)Cc4ccccc4)cc3)oc2c1C,,inactive: 0.129%
CC1(C)CC(=O)C=C(NC2CCCC(O)C2)C1 (stereo unspecified),,inactive: -8.97%
CC(=NCCCNC1CCCCC1)C1=C(O)CC(C)(C)CC1=O,"inconclusive [inhibitor, full curve]",
CN(C)c1ccc(N2C(=O)CC(Sc3ccccc3C(=O)O)C2=O)cc1 (stereo unspecified),active: 28.2 µM,
CCCCOCCCNCc1cccn1CCN1CCOCC1,"inconclusive [inhibitor, partial curve, poor fit]",
O=C1[C@@H]2CSCN2C(=O)CN1CCc1cccc(F)c1,"inconclusive [inhibitor, partial curve]",
